# Experimental data: PubChem BioAssay AID1963576 (National Center for Advancing Translational Sciences (NCATS), 2024)
# The whole screen tested about 46,000 compounds, of which about 60 (0.1%) were called active. Another 3% or so got no clear call; they are omitted. Calls come from the whole dose curve; as a rule, active = well fitted inhibition curve with a large enough effect; inconclusive = small, poorly fitted or top-dose-only effect; inactive = no such curve, though single readings can be large or run the other way. Some of the results follow.
# Test: Primary qHTS assay for Inhibitors of ovarian cancer metastasis using an organotypic tumor microenvironment (TME) model.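 For activity change, negative = inhibition: plate controls were DMSO wells for no effect and tomatine positive control wells for full effect.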 Note: nearly all actives have a fitted effect of over 65% in size.
# Details: SKOV3ip1-GFP adhesion/invasion on 3D omental model, fluorescence; series mostly up to 45.8 µM; activity change, negative = inhibition: at the top concentration
# Summary of the method: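 Adhesion/invasion was scored as fixed GFP-labeled SKOV3ip1 cell counts (488/509 nm), normalized to DMSO and tomatine controls. Cancer cells in serum-free medium, with four compound doses (0.36-46 umol/L), sat 2 hr at RT then 16 hr at 37 C on a 48 hr fibroblast/mesothelial/ECM culture.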
SMILES,outcome,"activity change, negative = inhibition"
CCN(CC)C(=O)Cn1c(=O)cc(C)c2c(C)nn(C)c21,inactive,–
COc1cccc(Nc2sc(C(=O)c3ccc(F)cc3)c(N)c2C(=O)NCc2ccc(C)cc2)c1,inactive,–
COc1ccc(Cn2ccnc2SCC(=O)Nc2cc(C(F)(F)F)ccc2Cl)cc1,–,inactive: 11.2%
COc1ccc(N2CCN(C(=O)CN(C)S(=O)(=O)c3cccs3)CC2)cc1,inactive,–
COc1ccc(NC(=O)CSc2c3c(nc4ccccc24)CCC3)c(OC)c1,–,inactive: -4.61%
COc1cccc(NC(=O)CSCn2nnc3c(=O)[nH]c(Cc4ccc(F)cc4)nc32)c1,–,inactive: 3.51%
O=C(Nc1ccccc1Cl)C1CCN(c2nc3ccccc3[nH]2)CC1,inactive,–
CN(Cc1ccc(F)cc1)S(=O)(=O)c1nnc(NC(=O)c2ccc(F)cc2)s1,–,inactive: 18.3%
Cc1cc(Cl)ccc1Nc1ncnc2onc(C)c12,–,inactive: 3.17%
Cc1ccc(Cl)cc1N1CCN(C(=O)c2cc(S(=O)(=O)N3CCCCCC3)cn2C)CC1,–,inactive: 32%
COc1cc(CNc2ccc3c(c2)ncn3C(C)C)cc(OC)c1OC,inactive,–
O=C(CN(CCc1ccccc1)S(=O)(=O)c1ccccc1)NCc1ccc(Cl)cc1,–,inactive: -7.28%
COc1ccc(NC(=O)C2CCCN(S(=O)(=O)c3ccc4c(c3)CCCN4C(C)=O)C2)cc1 (configuration not stated),–,inactive: -3.04%
O=C(CSc1nc2c([nH]c3ccccc32)c(=O)n1-c1ccccc1F)Nc1ccccc1C(F)(F)F,–,inactive: -0.638%
COC(=O)c1ccc2c(c1)N(CC(=O)Nc1cccc(C(F)(F)F)c1)C(=O)c1ccccc1S2,–,inactive: 7.42%
CCOc1ccc(CNC(=O)c2[nH]c3ccccc3c2Sc2ccc(C)cc2)cc1,–,inactive: -6.56%
Cc1ccc(NC(=O)CCS(=O)(=O)c2ccc(Br)cc2)c(C)c1,inactive,–
O=C(Cn1ccn(-c2cccc(Cl)c2)c(=O)c1=O)c1ccc(F)cc1,–,inactive: -3.2%
O=C(NCCCN1CCN(c2ccc(F)cc2)CC1)c1sc2ncccc2c1-n1cccc1,–,inactive: 4.36%
CC(C)c1ccccc1NC(=O)CN(c1ccccc1)S(=O)(=O)N(C)C,–,inactive: 17.5%
Cc1ccc2c(c1)CC(C)N2S(=O)(=O)c1nnc(NC(=O)c2ccccc2F)s1 (configuration not stated),–,inactive: -19.5%
Cc1ccc(-n2nc(CO)c(C(=O)NCCCCc3ccccc3)n2)cc1,inactive,–
Cc1ccc(C(=O)N2CCC(N3CCN(Cc4ccc(F)cc4)C(=O)C3=O)CC2)cc1,–,inactive: 0.259%
O=C1C(c2ccc(F)cc2)N(Cc2ccccc2Cl)C(=O)CN1C1CCCCC1 (configuration not stated),–,inactive: 1.18%

SMILES,outcome,"activity change, negative = inhibition"
Cc1cc(C)cc(NC(=O)CCS(=O)(=O)c2ccc3nc(C)sc3c2)c1,–,inactive: -7.09%
CCOc1ccc(-c2nn(-c3ccccc3)cc2C2NC(=O)NC(C)=C2C(=O)OC(C)C)cc1C (configuration not stated),–,inactive: -8.72%
COc1ccc(OC)c(S(=O)(=O)N2Cc3ccccc3CC2C(=O)Nc2ccc(Cl)cc2)c1 (configuration not stated),–,inactive: -0.928%
CCOC(=O)c1cc(-c2ccccc2)n(CCC(=O)Nc2ccc(C)cc2Cl)c1C,inactive,–
Cc1ccc(N(C)C(=O)Cn2cc(S(=O)(=O)N3CCCC3)c(S(=O)(=O)N3CCCC3)c2)cc1,–,inactive: 1.21%
O=C(Nc1ccc(F)cc1)C1CCCN(c2ncnc3c2nc2n3CCCCC2)C1 (configuration not stated),–,inactive: -6.77%
Cc1cccc(CNC(=O)Cc2ccc(NC(=O)N3CCCCc4ccccc43)cc2)c1,–,inactive: 8.21%
CCN(CC)CCn1c2c(c(SCC(=O)Nc3cccc(C(F)(F)F)c3)nc1=O)CCC2,–,inactive: -7.47%
COc1cccc(CNC(=O)c2oc3ccc4c(c3c2C)C(=O)CC(C)(C)O4)c1OC,–,inactive: 0.845%
COc1ccc(CCNC(=O)CCCCn2c(=O)c3ccccc3n(Cc3ccc(Cl)cc3)c2=O)cc1OC,inactive,–
Cc1c(C(=O)Nc2ccc(F)c(F)c2)oc2ccc(S(=O)(=O)N(C)C3CCCCC3)cc12,–,inactive: 30.1%
CCOC(=O)c1ccc(NC(=O)C(C)N(c2ccc(OCC)cc2)S(C)(=O)=O)cc1 (configuration not stated),–,inactive: 44.5%
COc1ccc(CNC(=O)c2cc3c(=O)n4cccc(C)c4nc3s2)cc1,–,inactive: -4.35%
O=C(Nc1cc2ccc(O)cc2oc1=O)c1ccc(F)cc1,inactive,–
CCOC(=O)c1[nH]c(C)c(CCC(=O)NC(C)c2ccccc2)c1C (configuration not stated),–,inactive: 3.65%
Cc1ccc(-n2c(=O)c3c(cnn3C)n(CC(=O)Nc3c(C)cccc3C)c2=O)cc1,–,inactive: -3.13%
COc1ccc(NC(=O)c2oc3c(c2C)-c2nn(Cc4ccccc4Cl)cc2CC3)cc1OC,–,inactive: -8.68%
CCOC(=O)C1=C(CN2CCN(c3cccc(OC)c3)CC2)NC(=O)NC1c1ccc(OC)cc1 (configuration not stated),–,inactive: 2.35%
COc1ccc(NS(=O)(=O)c2ccc3c(c2)CC(C)N3C(C)=O)c(OC)c1 (configuration not stated),–,inactive: 8.08%
Cn1c(=O)c2c(n3ncnc13)NC(=O)CC2c1cccc(F)c1 (configuration not stated),inactive,–
COc1cccc(-c2nc(CS(=O)(=O)CC(=O)NCCc3ccc(OC)c(OC)c3)c(C)o2)c1,–,inactive: 32.3%
Cc1ccc(C(=O)Nc2nc(-c3nnn(-c4cccc(Cl)c4C)c3C)ns2)cc1C,inactive,–
CCC(=O)N1CCc2cc(Br)cc(S(=O)(=O)N3CCCC(C(=O)NCc4ccc(OC)cc4)C3)c21 (configuration not stated),inactive,–
